# Out of some 39,000 compounds screened, about 220 (0.56%) showed activity. Some of the results follow.
# Test system: Escherichia coli K-12 BW25113
# Assay: relative growth (OD600 normalised to plate interquartile mean) (fraction); higher = less growth inhibition, active = 0.2 or less
# Conditions: 50 µM; LB; incubation time: overnight (16-24 h)
# 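Also: static incubation at 37 °C against the wild-type strain, values averaged over two biological replicates.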
row,SMILES,relative growth
1,Cc1nn(C)cc1NC(=O)C[C@H]1CC[C@@H]2[C@@H](COc3ccc(NC(=O)C4CCOCC4)cc3C(=O)N2C)O1,inactive: 1
2,CN1C(=O)c2cc(NS(=O)(=O)c3cccc(F)c3)ccc2OC[C@@H]2O[C@@H](CC(=O)NCCN3CCCCC3)CC[C@H]21,inactive: 1.05
3,C[C@@H]1CN([C@H](C)CO)C(=O)c2cc(NC(=O)Cc3ccccc3)ccc2O[C@@H](C)CCCCO[C@H]1CN(C)Cc1ccc(C(F)(F)F)cc1,inactive: 0.906
4,C[C@@H]1CN([C@@H](C)CO)C(=O)c2cc(NC(=O)Nc3ccc4c(c3)OCO4)ccc2O[C@@H](C)CCCCO[C@@H]1CN(C)C(=O)Nc1ccccc1,inactive: 1.04
5,CCSc1nc(-c2ccc(C)cc2)cc(C(F)(F)F)c1C#N,inactive: 1
6,C[C@@H]1CN([C@H](C)CO)S(=O)(=O)c2ccc(C#Cc3cccnc3)cc2O[C@H]1CN(C)CC1CCCC1,inactive: 1.02
7,C[C@@H]1CN([C@H](C)CO)C(=O)c2cc(NC(=O)CCCN(C)C)ccc2O[C@@H]1CN(C)Cc1ccc(Oc2ccccc2)cc1,inactive: 0.986
8,C[C@H](CO)N1C[C@H](C)[C@@H](CN(C)Cc2ccc(C(=O)Nc3ccccc3N)cc2)Oc2ccc(NC(=O)CCC(F)(F)F)cc2CC1=O,inactive: 1.01
9,C[C@@H]1CN([C@H](C)CO)C(=O)c2cc(C#CC3(O)CCCC3)cnc2O[C@@H]1CN(C)S(=O)(=O)c1cccc(F)c1,inactive: 0.986
10,C[C@@H](NC(=O)C[C@H]1CC[C@H](NC(=O)CN2CCOCC2)[C@@H](CO)O1)c1ccccc1,inactive: 0.976
11,O=C(C[C@@H]1CC[C@@H](NS(=O)(=O)c2ccccc2)[C@@H](CO)O1)NCc1ccncn1,inactive: 1.01
12,NC(=S)CS(=O)(=O)c1ccccn1,inactive: 0.934
13,O=C(C[C@H]1CC[C@@H]2[C@H](COC[C@@H](O)CN2S(=O)(=O)c2ccc(F)cc2)O1)NCCN1CCCCC1,inactive: 0.995
14,Cc1noc(C)c1S(=O)(=O)N(C)C[C@@H]1Oc2ccc(NS(C)(=O)=O)cc2CC(=O)N([C@@H](C)CO)C[C@H]1C,inactive: 1.01
15,C[C@H]1CN([C@@H](C)CO)C(=O)c2cc(NC(=O)Nc3ccc(C(F)(F)F)cc3)ccc2O[C@H]1CN(C)Cc1ccc(C(=O)O)cc1,inactive: 0.954
16,Cc1nnc(NS(=O)(=O)c2ccc(N)cc2)s1,inactive: 0.902
17,C[C@@H]1CN([C@H](C)CO)C(=O)Cc2cc(NC(=O)Nc3cccc4ccccc34)ccc2O[C@H]1CN(C)Cc1ccccc1,inactive: 1.01
18,COc1ccc(S(=O)(=O)N(C)C[C@H]2OCCCC[C@H](C)Oc3ccc(NC(=O)Nc4c(C)noc4C)cc3C(=O)N([C@H](C)CO)C[C@H]2C)cc1,inactive: 0.972
19,COc1ccccc1NC(=O)N(C)C[C@@H]1OCc2ccccc2-c2c(n(C)c3ccccc23)C(=O)N([C@@H](C)CO)C[C@@H]1C,inactive: 1.02
20,C[C@H](CO)N1C[C@H](C)[C@H](CN(C)Cc2ccc3c(c2)OCO3)Oc2c(NC(=O)c3ccncc3)cccc2C1=O,inactive: 0.959
21,CN(C)CCCCCCNC(=O)[C@H]1C[C@H]2C(=O)NCC(=O)N2[C@H]1c1cccc(OCCO)c1,inactive: 1.02

row,SMILES,relative growth
1,C[C@@H]1CCCCO[C@H](CN(C)C)[C@H](C)CN([C@H](C)CO)C(=O)c2cc(NC(=O)Nc3cccc4ccccc34)ccc2O1,inactive: 0.998
2,C[C@@H]1CCCCO[C@H](CN(C)S(=O)(=O)c2cn(C)cn2)[C@H](C)CN([C@@H](C)CO)C(=O)c2cc(NC(=O)c3ccncc3)ccc2O1,inactive: 0.834
3,Cc1ccc(S(=O)(=O)N(C)C[C@H]2Oc3ccc(NS(=O)(=O)c4ccccc4)cc3C(=O)N([C@@H](C)CO)C[C@@H]2C)cc1,inactive: 1.04
4,COCC#Cc1ccc2c(c1)O[C@H](CN(C)C(=O)c1ccccc1F)[C@@H](C)CN([C@H](C)CO)S2(=O)=O,inactive: 0.979
5,C[C@@H]1CCCCO[C@@H](CN(C)Cc2ccc3c(c2)OCO3)[C@H](C)CN([C@H](C)CO)C(=O)c2cc(NS(=O)(=O)c3ccc(F)cc3)ccc2O1,inactive: 1
6,COCC(=O)N(C)C[C@H]1Oc2cc(C#CC(C)(C)O)ccc2S(=O)(=O)N([C@H](C)CO)C[C@@H]1C,inactive: 0.989
7,C[C@H](CO)N1C[C@H](C)[C@H](CN(C)C(=O)Nc2ccccc2)Oc2ccc(NC(=O)CCN3CCOCC3)cc2CC1=O,inactive: 1
8,COC(=O)N1CCC[C@H](C(=O)O)C1,inactive: 1
9,C=CCNC(=O)[C@H]1[C@@H]2C(=O)O[C@@H](c3ccccc3)[C@@H](c3ccccc3)N2[C@@H](c2ccccc2OCCO)[C@]12C(=O)Nc1ccc(C#CC3=CCCCC3)cc12,inactive: 1.03
10,COc1ccc(NC(=O)Nc2cccc3c2O[C@H](CN(C)C(=O)Nc2cccc4ccccc24)[C@@H](C)CN([C@H](C)CO)C3=O)cc1,inactive: 1.01
11,COCCNC(=O)C[C@H]1C[C@H]2c3cc(NC(=O)COC)ccc3O[C@H]2[C@@H](CO)O1,inactive: 0.935
12,CCO[C@H]1OC(C(=O)N2CCN(C)CC2)=C[C@@H](c2coc3ccccc3c2=O)[C@@H]1CCCOC(=O)NCCCCCC(=O)NO,inactive: 1.01
13,CCC(=O)Nc1ccc2c(c1)OC[C@H](C)N(C(=O)CN1CCOCC1)C[C@@H](C)[C@H](OC)CN(C)C2=O,inactive: 1.01
14,C[C@H]1CN([C@@H](C)CO)C(=O)c2cccc(NS(=O)(=O)c3ccc(Cl)cc3)c2O[C@H]1CN(C)Cc1ccc(C(F)(F)F)cc1,inactive: 1.05
15,C[C@@H]1CCCCO[C@H](CN(C)Cc2ccc(C(=O)O)cc2)[C@H](C)CN([C@H](C)CO)C(=O)c2cc(NC(=O)C3CCCCC3)ccc2O1,inactive: 0.983
16,C[C@@H]1CN([C@@H](C)CO)C(=O)c2cc(NC(=O)Cn3cnnn3)ccc2O[C@H]1CN(C)Cc1ccccc1,inactive: 0.994
17,CCCC[P+](CCCC)(CCCC)Cc1ccc(NC(=O)[C@@H](Cc2ccc3ccccc3c2)N=C(NC2CCCCC2)NC2CCCCC2)cc1,active: 0.0386
18,C[C@@H]1CN([C@@H](C)CO)S(=O)(=O)c2ccc(C#CC3(O)CCCC3)cc2O[C@@H]1CN(C)C(=O)c1cccnc1,inactive: 1
19,C[C@@H]1CCCCO[C@@H](CN(C)Cc2ccccc2)[C@H](C)CN([C@H](C)CO)C(=O)c2cc(NC(=O)C3CCCCC3)ccc2O1,inactive: 0.997
20,CN(CC(=O)O)C1CCCC1,inactive: 1.07
21,COc1ccc(S(=O)(=O)N(C)C[C@H]2Oc3c(NC(=O)C4CC4)cccc3C(=O)N([C@H](C)CO)C[C@@H]2C)cc1,inactive: 0.992

row,SMILES,relative growth
1,O=C(C[C@H]1CC=CC[C@@H](Cc2ccc(F)cc2)C(=O)OC[C@H](Cc2c[nH]c3ccccc23)NC1=O)NCCO,inactive: 0.998
2,CC(C)NC(=O)N(C)C[C@@H]1Oc2c(NS(=O)(=O)c3cccs3)cccc2C(=O)N([C@H](C)CO)C[C@H]1C,inactive: 0.995
3,C[C@@H]1CN([C@H](C)CO)C(=O)CCCn2cc(nn2)CO[C@@H]1CN(C)C(=O)Nc1ccnc(N2CCOCC2)c1,inactive: 0.99
4,C[C@@H]1CN([C@H](C)CO)C(=O)c2cc(C3=CCCCC3)cnc2O[C@@H]1CN(C)C(=O)CN1CCOCC1,inactive: 0.995
5,O=C1c2c(O)cccc2C(C2OC(CO)C(O)C(O)C2O)c2cc(CO)cc(O)c21 (stereo unspecified),inactive: 0.878
6,O=S(=O)(NCc1ccco1)N1CCOCC1,inactive: 0.968
7,CCC(=O)N1C[C@]2(C1)CN([C@@H](CO)c1c2c2ccc(cc2n1C)OC)S(=O)(=O)C,inactive: 1
8,CCC[C@H]1CN(S(=O)(=O)c2c(C)cc(C)c3nonc23)C[C@@H]1N,inactive: 1
9,CC(C)N1CC[C@@H](CN(C)Cc2ccc(Oc3ccccc3)cc2)Oc2c(NC(=O)c3ccncc3)cccc2C1=O,inactive: 1.03
10,COc1ccc2c3c([nH]c2c1)[C@H](CO)N(C[C@]13CCN(CC1)Cc1ccccc1OC)C(=O)Nc1ccc(cc1)F,inactive: 0.997
11,Cc1ccc(Cc2nc(-c3ccc(Cl)cc3)cs2)cc1,inactive: 0.957
12,Cc1ccc(S(=O)(=O)Nc2ccc3c(c2)C(=O)N([C@H](C)CO)C[C@H](C)[C@@H](CN(C)C(=O)NC2CCCCC2)OCCCC[C@H](C)O3)cc1,inactive: 1.03
13,C[C@H](CO)N1C[C@H](C)[C@H](CN(C)Cc2ccc(Oc3ccccc3)cc2)Oc2ccc(NC(=O)NC3CCCCC3)cc2CC1=O,inactive: 1.03
14,C[C@@H]1CCCCO[C@@H](CN(C)Cc2ccc(Cl)c(Cl)c2)[C@H](C)CN([C@H](C)CO)C(=O)c2cc(N(C)C)ccc2O1,inactive: 1.02
15,COc1ccc(NC(=O)Nc2ccc3c(c2)C(=O)N([C@@H](C)CO)C[C@@H](C)[C@H](CN(C)Cc2ccc(Cl)c(Cl)c2)OCCCC[C@H](C)O3)cc1,inactive: 1.03
16,C[C@@H]1CN([C@@H](C)CO)C(=O)CCCn2nncc2CO[C@@H]1CN(C)S(=O)(=O)c1ccc(Oc2ccccc2)cc1,inactive: 1.02
17,Cc1cc(C(=O)Nc2cccc3c2O[C@@H](CN(C)C(=O)Nc2c(C)noc2C)[C@H](C)CN([C@H](C)CO)C3=O)n(C)n1,inactive: 1.04
18,C[C@@H]1CN([C@@H](C)CO)C(=O)c2cc(NS(=O)(=O)c3ccc(F)cc3)ccc2O[C@@H](C)CCCCO[C@@H]1CN(C)C(=O)Cc1ccccc1,inactive: 1.02
19,C[C@@H]1CN([C@H](C)CO)C(=O)c2cc(NC(=O)CCC(F)(F)F)ccc2O[C@@H](C)CCCCO[C@H]1CN(C)S(=O)(=O)c1cccs1,inactive: 0.959

# From the supplement of paper PMC9446081
